# Reference: PubChem BioAssay AID2675 (National Center for Advancing Translational Sciences (NCATS), 2010)
# Among all 280,000 compounds or so, about 100 (0.036%) were called active. Inconclusive means that the source gave no clear call. Such entries were picked first, then a sample of the others. Calls come from the whole dose curve; as a rule, active = well fitted inhibition curve with a large enough effect in the signal ratio, with a control signal flat (not every such curve was filed as active); inconclusive = small, poorly fitted or top-dose-only effect, or effect the other way, or a change in a side signal; inactive = no such curve, though single readings can be large or run the other way; the % refers to the signal ratio. A potency beside an inconclusive call is a rough fit, not a confirmed value. “Side channel” marks fits to a control or component signal instead of the main read-out.
# Biological target: Muscleblind-like protein 1 (Homo sapiens) (UniProt Q9NR56)
# Sequence of UniProt Q9NR56 (Q9NR56 whole entry, looked up): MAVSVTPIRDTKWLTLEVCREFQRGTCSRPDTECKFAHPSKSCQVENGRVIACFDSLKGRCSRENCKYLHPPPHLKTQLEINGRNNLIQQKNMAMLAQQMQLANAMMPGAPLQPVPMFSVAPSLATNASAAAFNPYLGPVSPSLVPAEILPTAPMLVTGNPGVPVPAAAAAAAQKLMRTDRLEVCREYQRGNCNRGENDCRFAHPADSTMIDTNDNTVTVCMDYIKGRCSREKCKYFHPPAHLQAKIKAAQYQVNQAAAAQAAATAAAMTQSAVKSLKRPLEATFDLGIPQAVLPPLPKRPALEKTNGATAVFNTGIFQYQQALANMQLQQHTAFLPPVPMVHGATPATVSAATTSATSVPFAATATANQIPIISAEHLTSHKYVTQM
# Assay: qHTS Assay for Inhibitors of MBNL1-poly(CUG) RNA binding
# Conditions: TR-FRET MBNL1-His/biotin-(CUG)12 binding, 665/545 ratio; activity change, negative = inhibition: at 57.5 µM (top of the series)
# Excerpt: NIH Chemical Genomics Center [NCGC] NIH Molecular Libraries Probe Production Centers Network [MLPCN] MLPCN Grant: R03 MH087421-01 Assay Submitter (PI): Charles Thornton NCGC Assay Overview: Expanded CTG repeats in the 3' untranslated region of the DM protein kinase (DMPK) gene causes type I myotonic dystrophy (DM1). DM1 is a multi-systemic disease with a prevalence of 1/7000. Clinical features include myotonia, progressive muscle weakness and wasting, cardiac arrhythmia, insulin resistance, hypersomnolence, cataracts, and other symptoms. The pathogenic effect of expanded CTG repeats stems from deleterious effects of the mutant transcript. CUGexp mRNA accumulates in nuclear foci and sequesters proteins of the muscleblind family, of which MBNL1 is the most common family member in skeletal muscles. The binding interaction between MBNL1 and CUGexp tracts leads to deregulation of alternative splicing and is therefore a key molecular step in the pathogenesis of DM1. To target this binding interaction, we optimized a protein-RNA binding assay in 1536-well format for identification of small molecule inhibitors of biotinylated (CUG)12 and his-tagged MBNL1 binding. Protein-RNA complex of MBNL1-His and Biotin-(CUG)12 captures the detection reagents terbium-labeled anti-His antibody and streptavidin conjugated XL665. This brings the terbium label within close proximity to XL665 to allow time-resolved fluorescence resonance energy transfer (TR-FRET). Inhibitors of MBNL1-(CUG)12 binding will disrupt TR-FRET.
# NCGC Assay Protocol Summary: This is a TR-FRET binding assay with MBNL1-His and Biotin-(CUG)12 RNA. The assay uses a ratiometric measurement. In the presence of MBNL1-(CUG)12 complex, the excitation energy is transferred to the XL665 acceptor label, causing emission at 665nm, while the 545nm donor signal […]. Data were normalized to the controls for basal activity (buffer only) and 100% activity (with MBNL1-(CUG)12). […] The final titration was 92 nM to 58 uM. (3) Add 1 ul of terbium labeled anti-His antibody (0.055 ng/ul final concentration) (4) Add 1 ul of streptavidin-XL665 (5 nM final concentration) (5) Incubate 60 min at room temperature (6) Detect the assay plate in a EnVision plate reader (PerkinElmer) with Ex=340 nm, Em1=665 nm and Em2=545 nm. Keywords: mytonic dystrophy type I, DM1, muscleblind like 1, MBNL1, CUG expansion, protein-RNA binding inhibitor, high throughput screening, MLSMR, MLSCN, NIH Roadmap, qHTS and NCGC
# % is set by controls: 0 for no effect and ±100 for the full control effect; potency is the fitted concentration of half-maximal effect; tags give direction and shape of the fitted curve or compound fluorescence and quenching.
Structure (SMILES),Potency,"activity change, negative = inhibition"
Cc1ccc(N2CC(C(=O)N/N=C/c3cccc([N+](=O)[O-])c3)CC2=O)cc1 (stereo not given),"inconclusive: 15.8 µM [quencher, side channel, partial curve]",–
COc1ccc([N+](=O)[O-])cc1NCc1ccco1,"inconclusive: 28.2 µM [quencher, side channel, single point]",–
CC(C)OC(=O)CSc1nnc(-c2ccc(C(C)(C)C)cc2)n1N,–,inactive: -6.32%
CCOC(=O)c1ccc(Nc2nc(N)c3cc(OC)c(OC)cc3n2)cc1,–,inactive: -10.2%
O=C(CCC1CCCN(C(=O)CC2=CCCCC2)C1)N1CCN(c2ccccn2)CC1 (stereo not given),–,inactive: -7.5%
O=C(c1ccc(S(=O)(=O)N2CCOCC2)cc1)N1CCN(c2ccc(F)cc2)CC1,–,inactive: 2.8%
Cc1ccsc1/C=N/NC(=O)c1nnn(-c2nonc2N)c1-c1ccc2c(c1)OCO2,"inconclusive: 15.8 µM [quencher, side channel, partial curve]",–
CCOCCCNC(=O)c1ccc2c(c1)ncn2-c1ccc(C)cc1C,–,inactive: 2.37%
CCCCn1c(=O)nc2n(-c3ccccc3)c3ccccc3cc-2c1=O,"inconclusive: 1.78 µM [quencher, side channel, full curve]",–
CC(Sc1nc(-c2ccco2)nc2c1c(=O)n(C)c(=O)n2C)C(=O)O (stereo not given),"inconclusive: 31.6 µM [quencher, side channel, single point]",–
Cc1ccccc1-n1nc(C)c(N=O)c1N,"inconclusive: 15.8 µM [quencher, side channel, partial curve]",–
CCOC(=O)C1CCN(C(=O)C(C)c2ccc([N+](=O)[O-])cc2)CC1 (stereo not given),"inconclusive: 35.5 µM [quencher, side channel, single point]",–
O=C(NCCc1ccc(Cl)cc1)c1ccc2nccnc2c1,"inconclusive: 15.8 µM [quencher, side channel, partial curve]",–
CC(=O)N1N=C(c2cccs2)CC1c1cccc([N+](=O)[O-])c1 (stereo not given),"inconclusive: 17.8 µM [quencher, side channel, single point]",–
COc1ccc(NC(=O)C2CC(=O)N(Cc3ccc(C)cc3)C2)cc1S(=O)(=O)N1CCCCC1 (stereo not given),–,inactive: -10.4%
CC(=O)/C=C(\C)Nc1ccccc1O,–,inactive: 23.3%
CCC(=O)NCc1ccc2[nH]c(C)cc2c1,"inconclusive: 39.8 µM [quencher, single point]",–
NC(N)=NC1=NC(=O)/C(=C/c2ccccc2-n2cccn2)S1,"inconclusive: 31.6 µM [quencher, side channel, single point]",–
O=C(CCC(=O)Nc1ccccc1Cl)NNC(=O)Nc1cccc([N+](=O)[O-])c1,"inconclusive: 10 µM [quencher, side channel, partial curve]",–
CCn1c2ccccc2c2nnc(SCC(=O)NCc3cccs3)nc21,"inconclusive: 35.5 µM [quencher, side channel, single point]",–
CN1C(=O)/C(=C/c2ccc(C(=O)Nc3ccc(O)cc3C(=O)O)cc2)SC1=S,"inconclusive: 8.91 µM [quencher, side channel, partial curve]",–
CC1=C(CC(=O)O)c2cc(F)ccc2/C1=C/c1ccc(S(C)=O)cc1 (stereo not given),"inconclusive: 11.2 µM [quencher, side channel, partial curve]",–

Structure (SMILES),Potency,"activity change, negative = inhibition"
Cc1cc(C)n(CC(=O)N/N=C/c2cccc([N+](=O)[O-])c2)n1,"inconclusive: 11.2 µM [quencher, side channel, partial curve]",–
c1cc2c(cc1C1CCCCC1)c1c3n2CCN=C3CCC1,"inconclusive: 22.4 µM [quencher, side channel, partial curve]",–
COc1cccc(NC(=O)CCNS(=O)(=O)c2cccc3nsnc23)c1,"inconclusive: 15.8 µM [quencher, side channel, partial curve]",–
CCOC(=O)C1CCN(S(=O)(=O)c2c(Cl)ccc3nonc23)CC1,"inconclusive: 7.08 µM [quencher, side channel, partial curve]",–
O=C(O)c1ccc(NS(=O)(=O)c2ccc(Cl)c(C(=O)Nc3ccccc3[N+](=O)[O-])c2)cc1,"inconclusive: 22.4 µM [quencher, side channel, single point]",–
COc1ccc(-c2cc(C(F)(F)F)n3ncc(C(=O)O)c3n2)cc1OC,"inconclusive: 17.8 µM [quencher, side channel, partial curve]",–
C=CCn1c(N)c(C(=O)OCC)sc1=S,"inconclusive: 28.2 µM [quencher, side channel, single point]",–
O=[N+]([O-])c1cccc(-c2nnc(-c3ccccc3)o2)c1,"inconclusive: 3.98 µM [quencher, side channel, full curve]",–
O=C(N/N=C\c1cc(Cl)ccc1O)c1ccc(S(=O)(=O)N2CCCCC2)cc1,"inconclusive: 0.112 µM [fluorescent, side channel, full curve]",–
Cc1ccc2c(c1C)NC(C(=O)O)C1CC=CC21 (stereo not given),inactive,–
CCOc1ccc(NC(=O)CSc2nnc(N)s2)c([N+](=O)[O-])c1,"inconclusive: 15.8 µM [quencher, side channel, partial curve]",–
O=S1(=O)NC2CCCCCN2c2ccc(F)cc21 (stereo not given),–,inactive: 0.462%
CC(C)NC(=O)CSc1nc2ccccc2n1-c1ccccc1,"inconclusive: 3.55 µM [quencher, side channel, single point]",–
O=C(NC1CCCCC1)C1CCCN1S(=O)(=O)c1cccc2nsnc12 (stereo not given),"inconclusive: 14.1 µM [quencher, side channel, partial curve]",–
O=C(NCCN1CCOCC1)c1cc2c(=O)n3ccccc3nc2n1Cc1ccccc1,"inconclusive: 10 µM [quencher, side channel, partial curve]",–
O=[N+]([O-])c1ccc(N2CCCC2)cc1NC1CC1,"inconclusive: 8.91 µM [quencher, side channel, partial curve, poor fit]",–
CCN(C(=O)COC(=O)/C=C/c1cccc(Br)c1)C1CCS(=O)(=O)C1 (stereo not given),"inconclusive: 31.6 µM [quencher, side channel, partial curve]",–
CCCN1CCC(=O)N([C@H](CSc2ccc(OC)cc2)c2ccccc2)CC1,–,inactive: 5.39%
CCC(=O)Nc1nnc(/C=C/c2ccccc2)s1,"inconclusive: 12.6 µM [quencher, side channel, partial curve]",–
COc1ccc(-n2c(CCc3ccccc3)nnc2SCC(=O)c2ccc(Cl)cc2)cc1,"inconclusive: 0.316 µM [fluorescent, side channel, partial curve]",–
O=C(CSc1nnc(CNC(=O)c2c(F)cccc2Cl)o1)NCc1ccc2c(c1)OCO2,–,inactive: 0.467%
COc1ccc(C2NC(=O)N(C)C(C)=C2[N+](=O)[O-])cc1 (stereo not given),"inconclusive: 28.2 µM [quencher, side channel, partial curve]",–

Structure (SMILES),Potency,"activity change, negative = inhibition"
CCCN1CCc2[nH]c(=S)[nH]c(=O)c2C1,"inconclusive: 100 µM [inhibitor, partial curve]",–
CCOc1ccccc1Nc1nc(-c2cccnc2)cs1,–,inactive: 12.2%
Cc1ccc(C2=Nc3ccccc3NC(C)(c3ccc(C)o3)C2)o1 (stereo not given),"inconclusive: 11.2 µM [quencher, side channel, partial curve]",–
Cc1ccc(CNC(=O)c2ccc(N3CCCC3=O)cc2)cc1,–,inactive: -6.7%
COc1ccccc1NC(=O)N(Cc1ccco1)Cc1cc2ccc(C)c(C)c2[nH]c1=O,–,inactive: 5%
O=C(Nc1ccc(OC(F)(F)F)cc1)c1ccc2nccnc2c1,"inconclusive: 8.91 µM [quencher, side channel, full curve]",–
Oc1ccc(-c2cnc(-c3ccc(O)cc3)nc2)cc1,–,inactive: 3.47%
CC(=O)Nc1nc(-c2cc([N+](=O)[O-])cs2)cs1,"inconclusive: 4.47 µM [quencher, side channel, full curve, poor fit]",–
CCOc1ccc(C(=O)Nc2ccc(NC(=S)NC(=O)CC)cc2)cc1Cl,"inconclusive: 1.26 µM [fluorescent, side channel, partial curve]",–
Cc1ccc(NC(=S)N/N=C/c2ccc([N+](=O)[O-])s2)cc1,"inconclusive: 14.1 µM [quencher, side channel, partial curve]",–
COc1cccc(OC)c1NC(=O)Cn1nc(C)c2ccccc2c1=O,–,inactive: -4.21%
O=C(NCCN1CCC(Cc2ccccc2)CC1)C1CCCN(S(=O)(=O)c2cnc[nH]2)C1 (stereo not given),–,inactive: 1.13%
O=S(=O)(NCCc1ccccc1)c1ccccc1,"inconclusive: 8.91 µM [quencher, side channel, single point]",–
O=C(CCN1CCCCC1)c1ccc2c(c1)OCCO2,–,inactive: -1.35%
C=CCSC1=NC(N)=C(C#N)C2(CCCCC2)C1C(N)=O (stereo not given),"inconclusive: 35.5 µM [quencher, side channel, single point]",–
Cc1ccsc1/C=C1/SC(N2CC(C)OC(C)C2)=NC1=O (stereo not given),"inconclusive: 14.1 µM [quencher, side channel, partial curve]",–
COc1ccccc1NC(=O)C(C)N(C)CCOc1ccccc1 (stereo not given),–,inactive: -6.02%
CCCC(C)C(=O)Nc1nc(C)c(-c2csc(Nc3ccc(Cl)cc3)n2)s1 (stereo not given),–,inactive: 23.4%
O=C(O)c1ccccc1C(=O)Nc1ccccc1,–,inactive: 2.41%
COC(=O)Cn1c(C)c(C#N)c2ccccc21,"inconclusive: 3.55 µM [quencher, side channel, partial curve]",–
NC(=O)CC(NC(=O)c1ccccc1)c1ccc(NCc2ccccc2)c([N+](=O)[O-])c1 (stereo not given),"inconclusive: 12.6 µM [quencher, side channel, partial curve]",–
